# Whole data set: some 81,000 sequences, median “one-hybrid fitness for binding parS DNA” near -0.17, cut for the highest 2% near 0.51. This is one part of the list.
# B1: Caulobacter ParB omega fusion; a variant is named by its letters at X, in order, B8GW30 (parent)
# chain: MESVVVGEPGMSEGRRGLGRGLSALLGEVDAAPAQAPGEQLGGSREAPIEILQRNPDQPRRTFREEDLEDLSNSIREKGVLQPILVRPSPDTAGEYQIVAGERAWRAAQRAGLKTVPIMVRELDDLAVLEIGIIENVQRADLNVLEEALSYKVLMEKFERTQENIAQTIGKSXSHVANXMRLLXLPDEVQSYLVSGELTAXHARAIAAAADPVALAKQIIEGGLSVRETEALARKAPNLSAGKSKGGRPPRVKDTDTQALESDLSSVLGLDVSIDHRGSTGTLTITYATLEQLDDLCNRLTRGI
# Variants of: B1
# Test: one-hybrid fitness for binding parS DNA (scaled: cognate 1, non-cognate 0); higher = stronger binding
# Conditions: with parS DNA site
# In short: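 On M9-minus-histidine containing 0.1 mM IPTG and 5 mM 3-AT, E. coli USO cells with a HIS3 reporter, site 19 bp from the promoter, grew 48 hours at 37°C to select Caulobacter ParB libraries randomised at four specificity codons. Plasmids from before and after were Illumina-sequenced, with three replicate libraries pooled and variants under 10 reads left out. Fitness is the log change in variant-to-wild-type read ratio, rescaled against cognate and non-cognate.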
row,Variant,one-hybrid fitness for binding parS DNA
1,WGSR,≤ 0.2
2,VQIG,≤ 0.2
3,KAML,≤ 0.2
4,DVEG,≤ 0.2
5,RAWL,≤ 0.2
6,RWPQ,≤ 0.2
7,FAQC,≤ 0.2
8,TQEA,≤ 0.2
9,AMVA,≤ 0.2
10,LRTS,0.206
11,AMMW,≤ 0.2
12,KGWG,≤ 0.2
13,MHDT,≤ 0.2
14,FHRA,≤ 0.2
15,QLAN,≤ 0.2
16,GSSM,≤ 0.2
17,RGHS,0.73
18,FGPD,≤ 0.2
19,SGPR,≤ 0.2
20,SFLQ,≤ 0.2
21,VISL,≤ 0.2

row,Variant,one-hybrid fitness for binding parS DNA
1,SHHM,≤ 0.2
2,AIIN,≤ 0.2
3,LHNL,≤ 0.2
4,IDRY,≤ 0.2
5,RHPE,≤ 0.2
6,GSTE,≤ 0.2
7,RQCH,≤ 0.2
8,KTLE,≤ 0.2
9,GTLR,≤ 0.2
10,LPVV,≤ 0.2
11,RCWR,≤ 0.2
12,REQM,≤ 0.2
13,SHFG,≤ 0.2
14,KSKN,≤ 0.2
15,VADN,≤ 0.2
16,TWRI,≤ 0.2
17,RCCR,≤ 0.2
18,HAFG,≤ 0.2
19,LGPE,≤ 0.2
20,SYSA,≤ 0.2
21,HYAG,≤ 0.2

row,Variant,one-hybrid fitness for binding parS DNA
1,EYYS,≤ 0.2
2,ESYL,≤ 0.2
3,PNSM,≤ 0.2
4,VVWR,≤ 0.2
5,NAVY,≤ 0.2
6,RYRP,≤ 0.2
7,RPML,≤ 0.2
8,KEST,≤ 0.2
9,CVLR,≤ 0.2
10,KRWQ,≤ 0.2
11,HPGF,≤ 0.2
12,NNRT,≤ 0.2
13,HKDQ,≤ 0.2
14,IAMS,≤ 0.2
15,TTPC,≤ 0.2
16,QWVL,≤ 0.2
17,HLCS,≤ 0.2
18,KKKC,≤ 0.2
19,RIIT,0.715
20,KPYS,≤ 0.2
21,RRCQ,≤ 0.2

row,Variant,one-hybrid fitness for binding parS DNA
1,DLQT,≤ 0.2
2,DHAL,≤ 0.2
3,ELWS,≤ 0.2
4,MVEM,≤ 0.2
5,SQII,≤ 0.2
6,VYQT,≤ 0.2
7,MTVQ,≤ 0.2
8,AMVG,≤ 0.2
9,HEPC,≤ 0.2
10,MAKP,≤ 0.2
11,VPQG,≤ 0.2
12,QLQG,≤ 0.2
13,SLLL,≤ 0.2
14,RQLE,≤ 0.2
15,SKTS,≤ 0.2
16,HPPS,≤ 0.2
17,LWQC,≤ 0.2
18,IFLG,≤ 0.2
19,LWLC,≤ 0.2
20,RGVF,≤ 0.2
21,FGDF,0.244
